# Data: publication PMC4336329 (PLoS ONE, 2015)
# Out of some 310,000 compounds screened, about 2,200 (0.71%) showed an effect of 50% or more. The effect is printed as a negative number. Some of the results follow.
# Target: human ether-à-go-go-related gene (hERG) potassium channel (human, UniProt Q12809)
# Assay: primary screen, population patch clamp on CHO cells stably expressing hERG
# Sequence of human ether-à-go-go-related gene (hERG) potassium channel (Q12809 whole entry, looked up): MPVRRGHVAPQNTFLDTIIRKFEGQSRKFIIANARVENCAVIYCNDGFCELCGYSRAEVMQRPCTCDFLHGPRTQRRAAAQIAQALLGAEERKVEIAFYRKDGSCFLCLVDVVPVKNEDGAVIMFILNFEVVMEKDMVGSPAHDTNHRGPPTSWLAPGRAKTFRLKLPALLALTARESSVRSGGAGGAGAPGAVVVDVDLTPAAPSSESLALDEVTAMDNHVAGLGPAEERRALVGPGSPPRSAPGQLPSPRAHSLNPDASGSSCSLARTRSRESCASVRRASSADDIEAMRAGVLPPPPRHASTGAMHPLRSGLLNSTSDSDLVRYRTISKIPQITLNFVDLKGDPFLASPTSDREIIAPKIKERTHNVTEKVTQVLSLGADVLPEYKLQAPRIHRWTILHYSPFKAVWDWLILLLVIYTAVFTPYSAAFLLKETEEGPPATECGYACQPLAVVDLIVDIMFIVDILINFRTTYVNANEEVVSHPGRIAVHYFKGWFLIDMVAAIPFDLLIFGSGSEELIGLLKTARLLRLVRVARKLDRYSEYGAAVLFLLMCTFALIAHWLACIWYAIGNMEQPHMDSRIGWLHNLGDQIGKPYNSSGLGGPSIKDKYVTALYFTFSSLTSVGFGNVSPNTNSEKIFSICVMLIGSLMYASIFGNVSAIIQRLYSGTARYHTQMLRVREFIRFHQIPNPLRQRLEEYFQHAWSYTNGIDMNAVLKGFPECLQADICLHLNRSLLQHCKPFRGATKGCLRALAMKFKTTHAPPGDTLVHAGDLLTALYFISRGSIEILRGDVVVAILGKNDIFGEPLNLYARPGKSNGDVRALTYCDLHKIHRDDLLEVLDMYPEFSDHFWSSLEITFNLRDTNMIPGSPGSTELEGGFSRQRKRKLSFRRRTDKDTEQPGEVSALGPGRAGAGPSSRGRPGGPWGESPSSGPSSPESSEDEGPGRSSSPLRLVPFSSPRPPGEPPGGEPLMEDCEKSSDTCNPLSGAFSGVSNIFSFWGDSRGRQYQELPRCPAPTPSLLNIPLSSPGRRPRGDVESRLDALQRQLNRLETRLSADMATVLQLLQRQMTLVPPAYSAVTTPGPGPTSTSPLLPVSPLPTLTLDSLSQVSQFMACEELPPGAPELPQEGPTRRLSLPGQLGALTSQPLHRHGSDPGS
row,SMILES,"hERG current change (%, negative = inhibition) at 1uM [%]"
1,NC(=O)c1ccc(NC(=O)COC(=O)c2c3c(nc4ccccc24)/C(=C\c2cccs2)CCC3)cc1,2.5
2,CN(C)CC1(c2ccccc2)CCCC1.Cl,-0.534
3,Cc1ccc(SCCC(=O)NCc2ccco2)cc1,10.5
4,COc1ccccc1CNC(=O)C(C)n1nc(C)c2c(C)n(-c3ccccc3)nc2c1=O (centres unmarked),12.5
5,CCN(CC)c1ccc(C=C2C(=O)OC3(CCCCC3)OC2=O)cc1,14.4
6,N#Cc1cc(O)c(-n2nnc3ccccc32)cc1C#N,8.84
7,Cc1oc(-c2cccs2)nc1CS(=O)CC(=O)NC1CCCCCC1 (centres unmarked),15.1
8,CCCn1c(N)c(C(=O)COC(=O)c2cccc(S(=O)(=O)N3CCOCC3)c2)c(=O)[nH]c1=O,5.86
9,Cc1occc1C(=O)NCc1ccc(C(=O)O)o1,-0.366
10,Cc1cc(C)cc(NS(=O)(=O)c2ccc3[nH]c(=O)ccc3c2)c1,11.7
11,Cc1ccc(C(=O)NNC(=O)c2n[nH]c(=O)c3ccccc23)cc1C,5.71
12,COC(=O)CCCNC(=O)CC1C(=O)NCCN1Cc1ccoc1 (centres unmarked),16.6
13,Cn1cccc1/C=C(\C#N)c1ccccc1,6.62
14,CCO.Cc1ccc(NC(=O)c2sc3nc(N)c(C#N)cc3c2N)cc1,-6.63
15,O=C(Nc1ccccc1C(F)(F)F)Nc1cccc2ccccc12,9.35
16,O=C(COc1nncc2ccccc12)NCCC1=CCCCC1,9.4
17,COc1ccc(C(C#N)c2ccc(Cl)nn2)cc1 (centres unmarked),8.62
18,O=C1NCC(O)=C1C=NC12CC3CC(CC(C3)C1)C2 [4246017],13.1
19,Cc1ccc(Nc2c(F)c(F)c(F)c(F)c2C(=O)O)cc1,7.23
20,Cc1cc(N2CCN(C(=O)c3ccco3)CC2)n2ncnc2n1,-7.2
21,COc1cc(C(=O)NNC(=O)C2CCC2)cc(OC)c1OC,3.15
22,CCOC(=O)c1cn(CC(=O)Nc2ccccc2C(=O)OCC)nn1,-2.67
23,CCO[C@@H]1OC(C(N)=O)=C[C@H](C(C)(C)C)[C@H]1CCCO,20

row,SMILES,"hERG current change (%, negative = inhibition) at 1uM [%]"
1,COC(=O)N/N=C(\C)c1cccc(C(F)(F)F)c1,7.29
2,Br.COC(=O)C1=CCCN(C)C1,3.9
3,Cc1ccc(-c2c(C)sc(NC(=O)C3C4CCC(O4)C3C(=O)O)c2C(=O)OC(C)C)cc1 (centres unmarked),6.73
4,O=C(NCCc1ccccc1)C1(S(=O)(=O)c2ccc(Cl)cc2)CC1,9.37
5,O=c1cc(N2CCN(c3ccc(F)cc3)CC2)[nH]c(=O)n1C1CCCCC1,8.74
6,CCc1ccc2oc(C(=O)Nc3nonc3CC)c(C)c2c1,13.4
7,CC(=O)Nc1c(-c2ccccc2)nc2ccc(Cl)cn12,7.89
8,O=C(CSc1nnc2ccccn12)Nc1ncc(Cl)cc1Cl,-0.579
9,COc1ccc2oc(C(=O)OCC(=O)N3CCCCC3)c(C)c2c1,4.73
10,CCNC(=S)N(CCN(CC)CC)Cc1cc2cc3c(cc2[nH]c1=O)OCO3,11.2
11,CC(COc1cccc2ccccc12)CN1CCN(C)CC1 (centres unmarked),-5.17
12,c1ccc(-c2nnc(NC3=NCCC3)o2)cc1,17.1
13,CCCCn1c(O)c(/C=N/N2CCOCC2)c(=O)[nH]c1=S,12.9
14,O=C(NCCOc1ccccc1)C1CCC(=O)N(Cc2ccc(Cl)cc2)C1 (centres unmarked),-0.988
15,Cc1ccc(C(=O)Oc2oc(-c3ccccc3)nc2C=Nc2ccc(N(C)C)cc2)cc1,13.4
16,CC1C(=O)C(C)(C)C(=O)OC1c1ccccc1 (centres unmarked),10.4
17,O=S(=O)(c1cc(F)ccc1F)N1CCN(c2ncccn2)CC1,3.1
18,C=CCNC(=O)C(=O)NCC1CCCN1CC (centres unmarked),2.83
19,CC(=O)c1cnn(-c2ccccc2)c1C,17.7
20,COc1cc(C)c(NC(=O)C(=S)N2CCCC2)cc1C,11.5
21,Cc1c(NC(=O)c2cc(-c3ccccc3O)on2)c(=O)n(-c2ccccc2)n1C,6.09
22,Fc1ccc(-c2nnc(CSc3nnc(-c4cccs4)o3)o2)cc1,-3.91
23,COc1ccc(OC)c(/C=N/NC(=O)c2ccc(=O)[nH]n2)c1,9.61

row,SMILES,"hERG current change (%, negative = inhibition) at 1uM [%]"
1,CNC(=S)NNC(=O)c1sccc1OCc1ccc(Cl)cc1Cl,6.61
2,O=C(C(Cc1ccccc1)N1C(=O)C2C3CCC(C3)C2C1=O)N1CCCCC1 (centres unmarked),12.5
3,Fc1ccc(N2CCN(c3nc(-c4ccco4)cc(C(F)(F)F)n3)CC2)cc1,9.47
4,O=C(c1ccccc1)N1CCN(c2ccccc2F)CC1,9.77
5,CC(CN1CCCCC1)OC(=O)c1cc2ccccc2o1.Cl (centres unmarked),9.02
6,CC(=O)c1cccc(NC(=O)C2CCCC2)c1,2.48
7,O=C1[C@H]2[C@@H](c3ccc(Cl)cc3)N3C(=O)N(c4cccc(Br)c4)C(=O)[C@@]3(Cc3ccc(Cl)cc3)[C@H]2C(=O)N1C1CCCCC1,0.754
8,C/C(=N\NC(=O)c1sccc1C)c1ccncc1,11.7
9,Cc1cccc(OCCCn2c(=O)sc3ccccc32)c1,9.12
10,CCOC(=O)c1cc(NC(=O)Nc2ccccc2OC)c(C)nc1C,1.84
11,Cc1ccc(CNC(=O)C2CCCN2C(=O)NCc2ccccc2)cc1 (centres unmarked),10.4
12,COc1cc(CCC(=O)Nc2sccc2C#N)cc(OC)c1OC,12.4
13,CCOc1cc(C2Nc3ccccc3C(=O)N2c2ccccc2)c(Br)cc1OCC(=O)O (centres unmarked),-6.86
14,O=C(NCc1cccs1)C(=O)c1cn(CC(=O)N2CCCC2)c2ccccc12,7.67
15,O=C(c1cccc([N+](=O)[O-])c1)N1CCCN(C(=O)c2cccc([N+](=O)[O-])c2)CC1,-23.2
16,O=C(COC(=O)c1ccc(Br)o1)Nc1ccc(S(=O)(=O)N2CCCC2)cc1,-3.67
17,Cc1ccc(N(CC(=O)NC(C)(C)C)C(=O)CNC(=O)c2cccs2)cc1C,13.9
18,O=C(/C=C/c1ccc2c(c1)OCO2)NCC1CCCO1 (centres unmarked),9.86
19,O=C(CSCc1ccc(Br)cc1)NC1CC1,12.4
20,CCC(C)NC(=O)c1cc2c(=O)n3ccccc3nc2s1 (centres unmarked),5.04
21,O=C(c1ccc(NC2=NC3CS(=O)(=O)CC3S2)cc1)N(CCO)Cc1ccccc1 (centres unmarked),26.5
22,O=C(COc1ccc([N+](=O)[O-])cc1)Nc1cc(C(=O)O)cc(C(=O)O)c1,10.6
23,Cc1ccc2c(COC(=O)C34CC5CC(CC(C5)C3)C4)cc(=O)oc2c1,7.73

row,SMILES,"hERG current change (%, negative = inhibition) at 1uM [%]"
1,O=C1CCCc2c1nc(-c1ccccc1F)n2O,8.8
2,CC(=O)N/C(=C\c1ccccc1)C(=O)OCC(=O)Nc1cc(S(=O)(=O)N(C)C)ccc1C,11.8
3,CC1=C(C(=O)Nc2ccccc2)C(c2ccc(C)o2)n2c(s/c(=C/c3ccccc3)c2=O)=N1 (centres unmarked),12.4
4,CCOc1ccc(NC(=O)Nc2ccc3c(c2)nnn3C)cc1,1.68
5,COc1ccccc1C(=O)N1CCCC(c2nc(-c3cc(OC)c(OC)c(OC)c3)no2)C1 (centres unmarked),-7.93
6,Cc1cccc(CCNC(=O)C2CCCN(c3cnccn3)C2)c1 (centres unmarked),9.86
7,CCCN(CC(=O)Nc1c(C)cccc1CC)C(=O)SCC,8.18
8,NC(=O)CC(NC(=O)Cc1cccc2ccccc12)c1ccc(N2CCc3ccccc3C2)c([N+](=O)[O-])c1 (centres unmarked),9.64
9,CN(C(=O)CCN1C(=O)c2ccccc2C1=O)c1ccccc1,15.8
10,O=C(Nc1ccc(C(=O)O)cc1)/C(=C\c1ccc2c(c1)OCO2)NC(=O)c1ccccc1,15.6
11,Cc1ccc(NC(=O)C(=O)NCC2OCCc3ccccc32)cc1 (centres unmarked),10
12,O=C1CNC(=S)N1Cc1cccc(Cl)c1,21.2
13,CCOC(=O)Cn1c(=O)cnc2ccccc21,7.79
14,O=C1C2CC=CCC2C(=O)N1CC(=O)N(Cc1ccccc1)C1CCS(=O)(=O)C1 (centres unmarked),-10.4
15,NC(=O)C(c1ccccc1)c1ccc(C(=O)c2ccccc2)cc1 (centres unmarked),7.86
16,CNC(=O)c1ccsc1NC(=O)c1ccc(Cl)s1,10.5
17,Cc1cc(C=O)c(C)n1-c1ccc(N2CCCC2)c([N+](=O)[O-])c1,10.4
18,COc1cc(NC(=O)Nc2ccc3c(c2)OCO3)cc(OC)c1OC,14.5
19,Cc1nc(CNC(=O)C2CCC(=O)N(Cc3cccc(F)c3)C2)sc1C (centres unmarked),8.42
20,COCCCn1c(=O)c2sccc2n(Cc2ccccc2C)c1=O,9.9
21,Cc1ccc(SCCC(=O)N2CCC(C)CC2)cc1,5.76
22,Nc1nc(Cl)cc(N2CCOCC2)n1,12.9
23,COc1ccccc1CNC(=O)CN(c1ccc(C)cc1)S(=O)(=O)c1c(C)noc1C,3.42
